The record followed here is PubChem BioAssay AID360 (National Center for Advancing Translational Sciences (NCATS), 2006).

About 550 (1.1%) of roughly 48,000 compounds were called active. Another 4% or so got no clear call; they are omitted. No stated cut-off is given here; in the data, active means potency below about 15 µM; inconclusive means mostly about 16 µM to 33 µM; inactive means weaker than that. The list shows a part of the results. Where only a bound is given, the exact number is not on record here.
Potency means the concentration at half of the fitted maximal effect.

UniProt P04062, sequence (P04062 whole entry, looked up): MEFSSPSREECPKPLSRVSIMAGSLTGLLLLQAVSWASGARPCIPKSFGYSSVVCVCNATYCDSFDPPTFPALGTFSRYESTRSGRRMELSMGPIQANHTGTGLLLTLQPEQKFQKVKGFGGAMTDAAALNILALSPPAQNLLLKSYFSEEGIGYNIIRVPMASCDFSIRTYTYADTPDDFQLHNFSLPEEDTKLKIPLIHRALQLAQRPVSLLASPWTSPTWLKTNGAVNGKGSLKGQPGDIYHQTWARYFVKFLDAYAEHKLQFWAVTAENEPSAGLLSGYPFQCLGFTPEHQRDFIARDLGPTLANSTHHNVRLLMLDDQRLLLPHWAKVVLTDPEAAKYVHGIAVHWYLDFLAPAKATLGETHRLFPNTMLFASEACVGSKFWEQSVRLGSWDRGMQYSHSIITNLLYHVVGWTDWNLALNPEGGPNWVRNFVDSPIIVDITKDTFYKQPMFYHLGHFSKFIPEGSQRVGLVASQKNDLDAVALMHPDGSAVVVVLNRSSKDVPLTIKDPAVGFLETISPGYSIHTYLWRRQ

The experiment addresses Lysosomal acid glucosylceramidase (Homo sapiens) (UniProt P04062). The experiment can be described thus: Glucocerebrosidase.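 Further: the screen sought inhibitors.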 The note with it: purified enzyme, resorufin glucoside fluorescence (screen aimed at inhibitors), 20 min; series mostly up to 77 µM. The method in brief:
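Compounds titrated against 0.2 nM normal enzyme, 30 uM resorufin beta-D-glucopyranoside substrate, citrate/phosphate buffer with taurocholate and tween-20, pH 5.9. Reaction ran 20 min at room temperature; fluorescence (Ex 548/Em 600) gave AC50.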
Regarding `Cn1c(=O)c2c(ncn2Cc2ccc(Cl)c(Cl)c2)n(C)c1=O`, the Potency was inactive: > 76.9 µM.
The result for `Cc1cc(C)c2c(n1)sc1c(N3CCOCC3)ncnc12` reads inactive: > 76.9 µM; that for `O=C(CN1C(=O)CCC1=O)Nc1nc(-c2ccc(Cl)s2)cs1`, inactive: > 76.9 µM; that for `Cc1nnc(NCc2ccco2)c2ccccc12`, inactive: > 76.9 µM.
Then `CCc1ccc(CC)c(S(=O)(=O)Nc2ccc(C(=O)O)c(O)c2)c1`, with “inactive”; and `COc1ccc2c(c1)CCc1c(C(=O)N3CCc4ccccc4C3)noc1-2`, with inactive: > 76.9 µM.
Regarding `CCn1cc(C(=O)O)c(=O)c2cnc(N3CCN(C(=O)Nc4cccc5ccccc45)CC3)nc21`, the Potency is inactive: > 76.9 µM.
As for `CCCNS(=O)(=O)c1ccc(C(=O)NCC2CCCO2)cc1` (configuration not stated), the Potency is inactive: > 76.9 µM.
As to `C=CCSc1nc2c(c(=O)[nH]c(=O)n2C)n1C/C=C(/C)Cl`, the Potency is inactive: > 76.9 µM.
The result for `Cc1ccc(Cn2c(=S)[nH]c3ccc(N4CCOCC4)cc3c2=O)o1` reads inactive: > 76.9 µM.
The result for `COc1ccc(CC(=O)NCc2ccccc2Cl)cc1S(=O)(=O)N1CCOCC1` reads inactive: > 76.9 µM.
The result for `Cc1cccc(Cc2c(C)nc3nc(SCC(=O)NCc4ccco4)nn3c2C)c1` reads inactive: > 76.9 µM; that for `Cc1cc(NC(=O)CN2CCC(O)(c3cccc(F)c3)CC2)no1`, inactive: > 76.9 µM.
In the case of `O=S(=O)(c1ccc(OCc2nc3ccccc3s2)c(Cl)c1)N1CCOCC1`, the Potency was inactive: > 76.9 µM.
Then `Nc1nonc1-n1nnc(C(=O)c2ccccc2)c1-c1ccccc1`, with “inactive”.
`Cc1ccc2cc(CN(Cc3ccco3)S(=O)(=O)c3c(C)ccc4nsnc34)c(=O)[nH]c2c1`: the Potency is inactive: > 76.9 µM.
Then `COC(=O)c1ccc(CC(=O)c2c(C)cc(O)cc2O)o1`, with inactive: > 76.9 µM; and `O=C(c1cc(S(=O)(=O)N2CCOCC2)ccc1F)N1CCN(Cc2ccccc2)CC1`, with inactive: > 76.9 µM; and `Cc1ccc(S(=O)(=O)N(C)CCCC(=O)Nc2ccccn2)cc1`, with inactive: > 76.9 µM.
On to `O=C(NC1CCCC1)C(c1ccc(N2CCOCC2)cc1)N(Cc1ccco1)C(=O)c1ccco1` (configuration not stated), for which the Potency was inactive: > 76.9 µM.
The result for `CCN(CC)CC(=O)c1c[nH]c2ccc(C)cc12` reads inactive: > 76.9 µM; that for `c1ccc(-c2cn3cccnc3n2)cc1`, inactive: > 76.9 µM.
For `Cc1nnc2n1N=CC=C(C(C)(C)C)S2`, the Potency is inactive: > 76.9 µM.
Turning to `CC1C2C(C)N(C)C(=O)N(C)C2N(C)C(=O)N1C` (configuration not stated), the Potency is inactive: > 76.9 µM.
With `Cc1n[nH]c(C)c1S(=O)(=O)N1CCCC(C(=O)NCc2cccs2)C1` (configuration not stated), the Potency was inactive: > 76.9 µM.
Then `O=C(O)CC(CC(=O)Nc1nncs1)c1ccccc1` (configuration not stated), with inactive: > 76.9 µM; and `COCCCn1c(=N)c(C(=O)NCC2CCCO2)cc2c(=O)n3ccccc3nc21` (configuration not stated), with inactive: > 76.9 µM.
Then `CC1(C)CC(=O)C(/C=N/n2cnc3ccccc3c2=O)=C(O)C1`, with inactive: > 76.9 µM; and `Cc1occc1C(=O)n1nnc2ccccc21`, with inactive: > 76.9 µM; and `O=C(NCc1ccco1)c1cc2c(s1)CSC2`, with inactive: > 76.9 µM.
The result for `CCC(=O)Nc1ccc(NC(=O)Cc2ccccc2)cn1` reads inactive: > 76.9 µM; that for `CSc1ccc(Cl)c(C(=O)OCC(=O)NCc2ccco2)c1`, inactive: > 76.9 µM.
For the molecule `Cc1ccccc1C(=O)Nc1cccc(NC(=O)Cn2cnc3c(=O)n(C)c(=O)n(C)c32)c1`, the Potency is inactive: > 76.9 µM.
On to `Cc1cccc2nc(CNc3ccc(F)cc3)cn12`, for which the Potency was inactive: > 76.9 µM.
The result for `CN1C(=S)SC(C)(C)C1(C)NO` (configuration not stated) reads inactive: > 76.9 µM.
Take `N#Cc1ccc(NC(=O)C2CC(c3ccc(F)cc3)=NO2)cc1` (configuration not stated): the Potency is inactive: > 76.9 µM.
For the molecule `CC(=O)c1c(C)[nH]c(C(=O)NC2CCCCC2)c1C`, the Potency is inactive: > 76.9 µM.
As to `Cc1cc(N2CCCC2=O)cc(C)c1S(=O)(=O)NCCOc1ccccc1`, the Potency is inactive: > 76.9 µM.
The result for `CCOC(=O)Oc1ccc2oc(C)c(C(=O)OCCOC)c2c1` reads inactive: > 76.9 µM; that for `CCc1n[nH]c(=O)n1Cn1c(CC)n[nH]c1=O`, inactive: > 76.9 µM; that for `O=C(NC1CC2CCCC(C1)N2C(=O)NCc1ccccc1)C1CC1` (configuration not stated), inactive: > 76.9 µM.
Then `CC1(C)N=C(C(=O)c2ccccc2)N(O)C1(C)O` (configuration not stated), with inactive: > 76.9 µM; and `CCCCCN(C(=O)NC(=O)Nc1nncs1)S(C)(=O)=O`, with inactive: > 76.9 µM.
For the molecule `O=C(CN1C(=O)C2C3C=CC(C3)C2C1=O)NCC1COc2ccccc2O1` (configuration not stated), the Potency was inactive: > 76.9 µM.
The result for `COc1cccc(N2C(=O)c3ccncc3C2=O)c1` reads inactive: > 76.9 µM; that for `CCCC(=O)Nc1cc(-c2nn(C)c(=O)c3ccccc23)ccc1OC`, inactive: > 76.9 µM.
Then `C#CCNc1nc(C)nc2c1nnn2Cc1ccccc1F`, with inactive: > 76.9 µM; and `c1coc(CN2CN=C(Nc3nc4ccccc4s3)NC2)c1`, with inactive: > 76.9 µM; and `Cc1noc(C)c1C(=O)OC(C(=O)NC1CCCC1)c1ccc(F)cc1` (configuration not stated), with inactive: > 76.9 µM.
Then `C=CCOc1ccc(CN(C)CC(=O)N(CC(C)C)c2c(N)n(CC(C)C)c(=O)[nH]c2=O)cc1`, with inactive: > 76.9 µM.
Regarding `Cn1c(CCN2CCOCC2)nc2cc(NC(=O)COc3ccccc3)ccc21`, the Potency was inactive: > 76.9 µM.
The result for `Cc1ccc(C(=O)COc2cccc(NC(=O)c3ccco3)c2)cc1` reads inactive: > 76.9 µM; that for `O=C(NCC1CCCO1)C1CCCN(S(=O)(=O)c2cccc3nsnc23)C1` (configuration not stated), inactive: > 76.9 µM; that for `COc1nc2c(C)cccc2cc1-c1noc(-c2ccncc2)n1`, inactive: > 76.9 µM.
On to `Cc1noc(C)c1COC(=O)c1ccccc1Sc1ccccc1C#N`, for which the Potency was inactive: > 76.9 µM.
Then `COc1ccc(-c2nnc(SCC(=O)c3cccs3)o2)cc1`, with inactive: > 76.9 µM; and `Cc1oc(C)c2c(=O)ccc3c(c12)OC(N)=C(C#N)C3c1ccc(F)cc1` (configuration not stated), with inactive: > 76.9 µM; and `CC1(C)CC(C2N3CC4(C)CN2CC(C)(C3)C4=O)CCO1` (configuration not stated), with inactive: > 76.9 µM.
The result for `O=C1C2(c3ccccc3)CN(CCCO)CC1(c1ccccc1)CN(CCCO)C2` reads inactive: > 76.9 µM.
The result for `C=CCn1c(Cc2cccs2)nnc1SCC(=O)Nc1cc(OC)cc(OC)c1` reads inactive: > 76.9 µM.
Turning to `Cc1ccnc(NC(=O)CCc2c(C)nc3ncnn3c2C)c1`, the Potency is inactive: > 76.9 µM.
Turning to `COC(=O)CCC(=O)c1oc2ccccc2c1N`, the Potency was inactive: > 76.9 µM.
As to `O=C(CCn1c(=O)oc2ccccc21)N1CCN(c2ccccc2Cl)CC1`, the Potency was inactive: > 76.9 µM.
Then `COc1cccc(NC(=O)CSc2nnc(C)s2)c1`, with inactive: > 76.9 µM; and `CCC1CCCCN1CCNC(=O)C1CCN(S(=O)(=O)c2c(C)noc2C)CC1` (configuration not stated), with inactive: > 76.9 µM; and `CCc1nnc(SCc2cn3c(C)cc(C)nc3n2)n1N`, with inactive: > 76.9 µM.
Take `CCOC(=O)c1cc2c(c(CSc3nc4ccccc4c(=O)n3Cc3ccco3)c1)OCOC2`: the Potency is inactive: > 76.9 µM.
Then `CCCCNC(=O)Cn1c(-c2ccc(OC)cc2)noc1=O`, with inactive: > 76.9 µM; and `Cc1cc(=O)oc(C)c1C(=O)NCc1ccccn1`, with inactive: > 76.9 µM.
For `CCCCC(=O)Nc1nnc(SCC(=O)N2CCN(c3ccccc3OC)CC2)s1`, the Potency is inactive: > 76.9 µM.
The result for `CCCCCCN=CC1=C(O)CC(C)(C)CC1=O` reads inactive: > 76.9 µM; that for `CCN(CC)C(=O)CSc1nc2sc(C)c(C)c2c(=O)[nH]1`, inactive: > 76.9 µM.
Then `COC(=O)c1cc(OC)c(OC)cc1NC(=O)CSc1nnc(-c2cccnc2)n1C`, with inactive: > 76.9 µM.
Then `Cc1ccccc1CS(=O)(=O)CCC(=O)NCCCN1CCOCC1`, with inactive: > 76.9 µM; and `Cc1ccccc1OCC(=O)N(Cc1cccs1)C1CCS(=O)(=O)C1` (configuration not stated), with inactive: > 76.9 µM; and `CCOc1ccc(-c2nn3c(-c4ccccc4)nnc3s2)cc1`, with inactive: > 76.9 µM.
With `CCOC(=O)C1(CC)NC(c2ccc(N(C)C)cc2)C2C(=O)N(C)C(=O)C21` (configuration not stated), the Potency was inactive: > 76.9 µM.
The result for `Cc1cc(=O)oc2c(C)c(OCC(=O)N(C)C)ccc12` reads inactive: > 76.9 µM; that for `Cc1cc(C)n(-c2cc(C)c(C)cc2Br)n1`, inactive: > 76.9 µM.
As to `Cc1ccc(NC(=O)CSc2nnc(-c3ccncc3)n2C)cc1C`, the Potency was inactive: > 76.9 µM.
The result for `Cc1ccc(NC(=O)c2ccc(F)c(S(=O)(=O)N3CCOCC3)c2)cc1F` reads inactive: > 76.9 µM; that for `CCCCn1c(SCc2cc(=O)[nH]c3ccccc23)nc2c1c(=O)n(C)c(=O)n2C`, inactive: > 76.9 µM.
Then `C=CCOc1cccc(C2C(C(=O)c3ccc(C)o3)=C(O)C(=O)N2CCN(C)C)c1` (configuration not stated), with inactive: > 76.9 µM; and `O=c1[nH]c(CSc2nnc(COc3ccccc3)n2-c2ccccc2)nc2ccccc12`, with inactive: > 76.9 µM; and `Cc1noc(C)c1COC(=O)C1(c2cccc(F)c2)CCCC1`, with inactive: > 76.9 µM.
Then `Cc1cc(N(CC(=O)O)S(C)(=O)=O)ccc1Br`, with inactive: > 76.9 µM; and `CCCCCC1CCC(C(=O)O)CC1` (configuration not stated), with inactive: > 76.9 µM; and `C/C(Cl)=C/CSc1nc2c(c(=O)[nH]c(=O)n2C)n1C(C)C`, with inactive: > 76.9 µM.
Take `CNC(=O)c1nnn(Cc2ccccc2)c1NC(C)=O`: the Potency is inactive: > 76.9 µM.
Consider `Cc1[nH]c(=O)[nH]c(=O)c1S(=O)(=O)NCCOC12CC3CC(CC(C3)C1)C2`, for which the Potency was inactive: > 76.9 µM.
Then `COc1ccc(OC)c(C(c2nnnn2CCc2ccccc2)N2CCC(C(N)=O)CC2)c1` (configuration not stated), with inactive: > 76.9 µM; and `CCOC(=O)c1cnc(SCC(=O)Nc2nnc(CC)s2)nc1N`, with inactive: > 76.9 µM.
